# Laboratory results taken from the supplement of paper PMC8728848.
# The list shows a part of the results.
# B1: SP8524D-bot-399-27-399 (Bacteroides ovatus) (protein)
# chain: DAKYDTLDTHAYIEEALSSTSQKVTVQATGESFTTLNVHLSNLSSTDNHYKLVTDQSVLDTYNHINGTGYIMLPKDYYTLPETITVKAGQYAADALSIALKAFSQEMMKSGESYALPVKLVLQDGSISPMENTGTFVILAESIIEFSAPMFVGAPSLKANKFTESPETYSQYTIEVRFQVANTADRDRAVFKNGGDDANFILLRFEDPQSDNENYKAHSLVQIVGRNRLYLNPSNSFKPNEWQHLALVCDGSNYRLYINGVDSGVLSIPTGATTFSDVNWFCLGDDSYSRWGNCKILMSEARIWSVVRSASQIQNNMTQVSPKSVGLEAYWRFNEGQGNVFEDATGKGHTLTTSATPTWIDGILSTDKSTEWK
# What was measured:
# Experiment in all cases: glycan array binding signal (z-score within array); higher = stronger binding
# Conditions in all cases: glycan notation: IUPAC condensed, linker removed
# [1] = target: Gal(b1-4)GlcNAc(b1-3)Gal(b1-4)GlcNAc(b1-2)[Gal(b1-4)GlcNAc(b1-3)Gal(b1-4)GlcNAc(b1-6)]Man(a1-6)[Gal(b1-4)GlcNAc(b1-3)Gal(b1-4)GlcNAc(b1-2)Man(a1-3)]Man(b1-4)GlcNAc(b1-4)GlcNAc
# Procedure, shortened: (§1)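 Glycan array data came from 3228 arrays in the Consortium for Functional Glycomics database, and only arrays with an available protein sequence were kept. Glycan names were put into IUPAC-condensed notation, and columns mapping to the same glycan were averaged. The binding signal is a within-array Z-score, averaged across arrays of one protein sequence run at different concentrations or buffers and across linkers. A negative Z-score can be read as non-binding.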
# [2] = target: Gal(b1-4)GlcNAc(b1-3)Gal(b1-4)GlcNAc(b1-2)[Gal(b1-4)GlcNAc(b1-3)Gal(b1-4)GlcNAc(b1-6)]Man(a1-6)[Gal(b1-4)GlcNAc(b1-3)Gal(b1-4)GlcNAc(b1-2)Man(a1-3)]Man(b1-4)GlcNAc(b1-4)[Fuc(a1-6)]GlcNAc
# Procedure, shortened: as §1
# [3] = target: Gal(b1-4)GlcNAc(b1-3)Gal(b1-4)GlcNAc(b1-3)Gal(b1-4)GlcNAc
# Procedure, shortened: as §1
# [4] = target: Gal(b1-4)GlcNAc(b1-3)Gal(b1-4)GlcNAc(b1-3)Gal(b1-4)GlcNAc(b1-2)Man(a1-3)[Gal(b1-4)GlcNAc(b1-3)Gal(b1-4)GlcNAc(b1-3)Gal(b1-4)GlcNAc(b1-2)Man(a1-6)]Man(b1-4)GlcNAc(b1-4)GlcNAc
# Procedure, shortened: as §1
# [5] = target: Gal(b1-4)GlcNAc(b1-3)Gal(b1-4)GlcNAc(b1-3)Gal(b1-4)GlcNAc(b1-2)Man(a1-3)[Gal(b1-4)GlcNAc(b1-3)Gal(b1-4)GlcNAc(b1-3)Gal(b1-4)GlcNAc(b1-2)Man(a1-6)]Man(b1-4)GlcNAc(b1-4)[Fuc(a1-6)]GlcNAc
# Procedure, shortened: as §1
# [6] = target: Gal(b1-4)GlcNAc(b1-3)Gal(b1-4)GlcNAc(b1-3)Gal(b1-4)GlcNAc(b1-2)[Gal(b1-4)GlcNAc(b1-3)Gal(b1-4)GlcNAc(b1-3)Gal(b1-4)GlcNAc(b1-6)]Man(a1-6)[Gal(b1-4)GlcNAc(b1-3)Gal(b1-4)GlcNAc(b1-3)Gal(b1-4)GlcNAc(b1-2)Man(a1-3)]Man(b1-4)GlcNAc(b1-4)[Fuc(a1-6)]GlcNAc
# Procedure, shortened: as §1
# [7] = target: Gal(b1-4)GlcNAc(b1-3)Gal(b1-4)GlcNAc(b1-3)Gal(b1-4)GlcNAc(b1-3)Gal(b1-4)GlcNAc(b1-2)Man(a1-3)[Gal(b1-4)GlcNAc(b1-3)Gal(b1-4)GlcNAc(b1-3)Gal(b1-4)GlcNAc(b1-3)Gal(b1-4)GlcNAc(b1-2)Man(a1-6)]Man(b1-4)GlcNAc(b1-4)GlcNAc
# Procedure, shortened: as §1
# [8] = target: Gal(b1-4)GlcNAc(b1-3)Gal(b1-4)GlcNAc(b1-3)Gal(b1-4)GlcNAc(b1-3)Gal(b1-4)GlcNAc(b1-2)Man(a1-3)[Gal(b1-4)GlcNAc(b1-3)Gal(b1-4)GlcNAc(b1-3)Gal(b1-4)GlcNAc(b1-3)Gal(b1-4)GlcNAc(b1-2)Man(a1-6)]Man(b1-4)GlcNAc(b1-4)[Fuc(a1-6)]GlcNAc
# Procedure, shortened: as §1
# [9] = target: Gal(b1-4)GlcNAc(b1-3)Gal(b1-4)GlcNAc(b1-3)Gal(b1-4)GlcNAc(b1-3)Gal(b1-4)GlcNAc(b1-2)[Gal(b1-4)GlcNAc(b1-3)Gal(b1-4)GlcNAc(b1-3)Gal(b1-4)GlcNAc(b1-3)Gal(b1-4)GlcNAc(b1-6)]Man(a1-6)[Gal(b1-4)GlcNAc(b1-3)Gal(b1-4)GlcNAc(b1-3)Gal(b1-4)GlcNAc(b1-3)Gal(b1-4)GlcNAc(b1-2)Man(a1-3)]Man(b1-4)GlcNAc(b1-4)[Fuc(a1-6)]GlcNAc
# Procedure, shortened: as §1
# [10] = target: Gal(b1-4)GlcNAc(b1-3)Gal(b1-4)GlcNAc(b1-3)Gal(b1-4)GlcNAc(b1-3)Gal(b1-4)GlcNAc(b1-3)Gal(b1-4)GlcNAc(b1-2)Man(a1-3)[Gal(b1-4)GlcNAc(b1-3)Gal(b1-4)GlcNAc(b1-3)Gal(b1-4)GlcNAc(b1-3)Gal(b1-4)GlcNAc(b1-3)Gal(b1-4)GlcNAc(b1-2)Man(a1-6)]Man(b1-4)GlcNAc(b1-4)GlcNAc
# Procedure, shortened: as §1
# [11] = target: Gal(b1-4)GlcNAc(b1-3)Gal(b1-4)GlcNAc(b1-3)Gal(b1-4)GlcNAc(b1-3)Gal(b1-4)GlcNAc(b1-3)Gal(b1-4)GlcNAc(b1-2)Man(a1-3)[Gal(b1-4)GlcNAc(b1-3)Gal(b1-4)GlcNAc(b1-3)Gal(b1-4)GlcNAc(b1-3)Gal(b1-4)GlcNAc(b1-3)Gal(b1-4)GlcNAc(b1-2)Man(a1-6)]Man(b1-4)GlcNAc(b1-4)[Fuc(a1-6)]GlcNAc
# Procedure, shortened: as §1
# [12] = target: Gal(b1-4)GlcNAc(b1-3)Gal(b1-4)GlcNAc(b1-3)Gal(b1-4)GlcNAc(b1-3)Gal(b1-4)GlcNAc(b1-3)Gal(b1-4)GlcNAc(b1-2)[Gal(b1-4)GlcNAc(b1-3)Gal(b1-4)GlcNAc(b1-3)Gal(b1-4)GlcNAc(b1-3)Gal(b1-4)GlcNAc(b1-3)Gal(b1-4)GlcNAc(b1-6)]Man(a1-6)[Gal(b1-4)GlcNAc(b1-3)Gal(b1-4)GlcNAc(b1-3)Gal(b1-4)GlcNAc(b1-3)Gal(b1-4)GlcNAc(b1-3)Gal(b1-4)GlcNAc(b1-2)Man(a1-3)]Man(b1-4)GlcNAc(b1-4)[Fuc(a1-6)]GlcNAc
# Procedure, shortened: as §1
# [13] = target: Gal(b1-4)GlcNAc(b1-3)Gal(b1-4)GlcNAc(b1-3)Gal(b1-4)GlcNAc(b1-3)Gal(b1-4)GlcNAc(b1-3)Gal(b1-4)GlcNAc(b1-3)Gal(b1-4)GlcNAc(b1-2)Man(a1-3)[Gal(b1-4)GlcNAc(b1-3)Gal(b1-4)GlcNAc(b1-3)Gal(b1-4)GlcNAc(b1-3)Gal(b1-4)GlcNAc(b1-3)Gal(b1-4)GlcNAc(b1-3)Gal(b1-4)GlcNAc(b1-2)Man(a1-6)]Man(b1-4)GlcNAc(b1-4)GlcNAc
# Procedure, shortened: as §1
# [14] = target: Gal(b1-4)GlcNAc(b1-3)Gal(b1-4)GlcNAc(b1-3)GalNAc
# Procedure, shortened: as §1
# [15] = target: Gal(b1-4)GlcNAc(b1-3)Gal(b1-4)GlcNAc(b1-3)[Gal(b1-4)GlcNAc(b1-3)Gal(b1-4)GlcNAc(b1-6)]GalNAc
# Procedure, shortened: as §1
# [16] = target: Gal(b1-4)GlcNAc(b1-3)Gal(b1-4)GlcNAc(b1-6)[Gal(b1-3)]GalNAc
# Procedure, shortened: as §1
# [17] = target: Gal(b1-4)GlcNAc(b1-3)Gal(b1-4)[Fuc(a1-3)]GlcNAc(b1-3)Gal(b1-4)[Fuc(a1-3)]GlcNAc
# Procedure, shortened: as §1
# [18] = target: Gal(b1-4)GlcNAc(b1-3)GalNAc
# Procedure, shortened: as §1
# [19] = target: Gal(b1-4)GlcNAc(b1-3)[Fuc(a1-3)GlcNAc(b1-6)]Gal(b1-4)Glc
# Procedure, shortened: as §1
# [20] = target: Gal(b1-4)GlcNAc(b1-3)[Gal(b1-4)GlcNAc(b1-6)]Gal(b1-4)GlcNAc
# Procedure, shortened: as §1
# [21] = target: Gal(b1-4)GlcNAc(b1-3)[GlcNAc(b1-6)]Gal(b1-4)GlcNAc
# Procedure, shortened: as §1
# [22] = target: Gal(b1-4)GlcNAc(b1-6)Gal(b1-4)GlcNAc
# Procedure, shortened: as §1
# [23] = target: Gal(b1-4)GlcNAc(b1-6)GalNAc
# Procedure, shortened: as §1
# [24] = target: Gal(b1-4)GlcNAc(b1-6)[Gal(b1-3)]GalNAc
# Procedure, shortened: as §1
# [25] = target: Gal(b1-4)GlcNAc(b1-6)[Gal(b1-4)GlcNAc(b1-3)]GalNAc
# Procedure, shortened: as §1
# [26] = target: Gal(b1-4)GlcNAc6P
# Procedure, shortened: as §1
# [27] = target: Gal(b1-6)Gal
# Procedure, shortened: as §1
# [28] = target: Gal3S(b1-3)GalNAc
# Procedure, shortened: as §1
# [29] = target: Gal3S(b1-3)GlcNAc
# Procedure, shortened: as §1
# [30] = target: Gal3S(b1-3)[Fuc(a1-4)]GlcNAc
# Procedure, shortened: as §1
# [31] = target: Gal3S(b1-4)Glc
# Procedure, shortened: as §1
# [32] = target: Gal3S(b1-4)Glc6S
# Procedure, shortened: as §1
# [33] = target: Gal3S(b1-4)GlcNAc
# Procedure, shortened: as §1
# [34] = target: Gal3S(b1-4)[Fuc(a1-3)]Glc6S
# Procedure, shortened: as §1
# [35] = target: Gal3S(b1-4)[Fuc(a1-3)]GlcNAc
# Procedure, shortened: as §1
# [36] = target: Gal3S(b1-4)[Fuc(a1-3)]GlcNAc6S
# Procedure, shortened: as §1
# [37] = target: Gal3S4S(b1-4)GlcNAc
# Procedure, shortened: as §1
binder,measurement,setting,value
B1,glycan array binding signal (z-score),[1],-0.457
same,glycan array binding signal (z-score),[2],0.44
same,glycan array binding signal (z-score),[3],-0.084
same,glycan array binding signal (z-score),[4],0.447
same,glycan array binding signal (z-score),[5],-0.133
same,glycan array binding signal (z-score),[6],-0.015
same,glycan array binding signal (z-score),[7],0.135
same,glycan array binding signal (z-score),[8],-0.103
same,glycan array binding signal (z-score),[9],0.023
same,glycan array binding signal (z-score),[10],-0.119
same,glycan array binding signal (z-score),[11],0.303
same,glycan array binding signal (z-score),[12],1.02
same,glycan array binding signal (z-score),[13],0.202
same,glycan array binding signal (z-score),[14],-0.299
same,glycan array binding signal (z-score),[15],0.852
same,glycan array binding signal (z-score),[16],0.317
same,glycan array binding signal (z-score),[17],-0.36
same,glycan array binding signal (z-score),[18],-0.244
same,glycan array binding signal (z-score),[19],-0.173
same,glycan array binding signal (z-score),[20],-0.191
same,glycan array binding signal (z-score),[21],0.036
same,glycan array binding signal (z-score),[22],-0.199
same,glycan array binding signal (z-score),[23],-0.234
same,glycan array binding signal (z-score),[24],-0.037
same,glycan array binding signal (z-score),[25],-0.122
same,glycan array binding signal (z-score),[26],-0.07
same,glycan array binding signal (z-score),[27],-0.143
same,glycan array binding signal (z-score),[28],-0.264
same,glycan array binding signal (z-score),[29],-0.137
same,glycan array binding signal (z-score),[30],-0.37
same,glycan array binding signal (z-score),[31],0.001
same,glycan array binding signal (z-score),[32],-0.176
same,glycan array binding signal (z-score),[33],-0.262
same,glycan array binding signal (z-score),[34],0.122
same,glycan array binding signal (z-score),[35],-0.048
same,glycan array binding signal (z-score),[36],0.203
same,glycan array binding signal (z-score),[37],-0.075
